Laboratory results from publication PMC12136788.
This is one part of the list.

T1: UNK ZnF1-6 (called full-length) (human, UniProt Q9C0B0 30-357)
T1 sequence: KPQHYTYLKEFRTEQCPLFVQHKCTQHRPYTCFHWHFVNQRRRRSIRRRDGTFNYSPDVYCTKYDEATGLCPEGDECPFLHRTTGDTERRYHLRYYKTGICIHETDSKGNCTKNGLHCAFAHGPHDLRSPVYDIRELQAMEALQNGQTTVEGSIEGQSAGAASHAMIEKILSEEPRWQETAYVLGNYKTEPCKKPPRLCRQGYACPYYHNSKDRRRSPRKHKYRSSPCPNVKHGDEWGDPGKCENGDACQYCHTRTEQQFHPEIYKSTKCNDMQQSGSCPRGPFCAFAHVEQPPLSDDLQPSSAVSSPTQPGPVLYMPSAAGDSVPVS

B1: chr12:47968718:47968836:+|3pUTR|ENSG00000134291|unk|total|mutant (ssRNA)
RNA: GGGAGUUCUACAGUCCGACGAUCCUGGGAGCUUUUUGAAAAGAAAGAAAAAAGUGUGUUGGCUUUUUUUUUUUUCCGAAAGUCCGAAUUGUUUUUACCAAGAGUCUAUGUGGGGCUUGAUUCACCCUUCAUCCAUUGGCUGGACAACAGAGGAUUGAGCAUCA
B2: chr19:34227675:34227687:+|3pUTR|ENSG00000257103|msi1_unk|FALSE|overlapping (ssRNA)
RNA: GGGAGUUCUACAGUCCGACGAUCUUAAAACAUGAGCAUUAAAUAUAUUUGGAAUAGCAGAAGGUUAAGUAAUUUCUUAUGUAUAGUUAAACUAAAGCAGUACUUCAGUGGGACUUAACAAGUAUUUUUUCAUCACUGAAAGGUCAACAGAGGAUUGAGCAUCA
B3: chr6:105099394:105099495:-|3pUTR|ENSG00000112276|msi1|FALSE|unique (ssRNA)
RNA: GGGAGUUCUACAGUCCGACGAUCUCCGUUGAAUGAAGCUCAUUGAUUGGCCAUGCUGGUCAUGUCUAUUUUGCUUCAUCCACUAGAACCAACUUUGAGUCAGUCUCCUGUUACGUUAAAUGGCUAAGAAAAGUUCCAAAUGAACAACAGAGGAUUGAGCAUCA
B4: chr2:37644049:37644150:-|3pUTR|ENSG00000163171|msi1|FALSE|unique (ssRNA)
RNA: GGGAGUUCUACAGUCCGACGAUCUUAGGACAACUAACCAAGUAGACGAAACAAGUUCCCCUAGGCAGGGGUGUCCAAUAUUUUAGCUUCCCUGGACCGCAUUGGAAGAAUUUUCUUGGGCCACAUGUAAAACACACUAACACUCAACAGAGGAUUGAGCAUCA
B5: chrX:100644401:100644502:+|5pUTR|ENSG00000102359|unk|total|mutant (ssRNA)
RNA: GGGAGUUCUACAGUCCGACGAUCUUAACAGAAUCCCGGAGGCCGGGACAGACCAGGAGCCACUCGUUCCCGGAAUGUUAAAGCCGAAGGUUUUUUCCAAUUGAUGAGAGGAGCAGAGAGGAAGGAGAAAGAGGAGGAGAGAGACAACAGAGGAUUGAGCAUCA
B6: chr6:109481629:109481730:-|CDS|ENSG00000112365|unk|FALSE|unique (ssRNA)
RNA: GGGAGUUCUACAGUCCGACGAUCGCUCAGUUCUUAAAAGUCUAUGACCUGGUAAAGGCUUACACAGACUUCCAAAAUAAUCAUAGCUCCCCAAAGCCAACAACUUUGAACACUGCUGGUGCCCCAGUGGUUGUUAUCUCUAAUCAACAGAGGAUUGAGCAUCA
B7: chr10:123051058:123051159:+|CDS|ENSG00000196177|unk|FALSE|unique (ssRNA)
RNA: GGGAGUUCUACAGUCCGACGAUCCAAGUGGCUCACGUGGCCACCCAGCUGGAAGCUGCAAGAUUACUAACAUACAAUGCUGCUAGGCUUUUAGAAGCUGGAAAGCCAUUCAUAAAAGAAGCGUCAAUGGCCAAAUACUAUGCACAACAGAGGAUUGAGCAUCA
B8: chr11:92354873:92354974:+|CDS|ENSG00000165323|unk|total|mutant (ssRNA)
RNA: GGGAGUUCUACAGUCCGACGAUCGUCACUCUUAAAGUUUUUUCCGAUGAUGUCAAUGACUGCUCCCCAGCUUUCAUUCCCAGCCGCUACCGUGUGAAGGUUCUUGAAGAUCUCCCUGUUGGCACUGUCAUUGCUUGGCUUGAGCAACAGAGGAUUGAGCAUCA
B9: chr1:15430058:15430159:+|3pUTR|ENSG00000142634|msi1|FALSE|unique (ssRNA)
RNA: GGGAGUUCUACAGUCCGACGAUCCCUGGAAGCUACGCGGACUUGCAGAGGUUUUAUUUUUUGGCCUUAGAAUCUGCAGAAAUUAGGAGGCACCGAGCCCAGCGCAGCAGCCUCGGACCCGGAUUGCGUUUGCCUUAGCGGAUACAACAGAGGAUUGAGCAUCA
B10: ENSG00000070961:be:win_701|CDS|ENSG00000070961|bound_else_gene|NA|bound_elsewhere_windowed (ssRNA)
RNA: GGGAGUUCUACAGUCCGACGAUCACGAUCUUAAAAUUGAUGAAAGCUCAUUGACUGGUGAAUCAGAUCAUGUUAAAAAGUCUUUAGAUAAGGAUCCCUUACUUCUAUCAGGUACUCAUGUAAUGGAAGGCUCUGGAAGAAUGGCAACAGAGGAUUGAGCAUCA
B11: chr4:42087128:42087229:+|3pUTR|ENSG00000014824|msi1|total|mutant (ssRNA)
RNA: GGGAGUUCUACAGUCCGACGAUCAUUUUGUAUAAUACCGUUCAUACUGUGUCUGUGAGUUUCUUCAGUUACAAAUGGGCAUUCCGUACCGUUAUAUUGACUAUAACAUGUAAGUAAACCGCUUUCUACUGACCCUAAGUUAUCCAACAGAGGAUUGAGCAUCA
B12: chrX:8790794:8791172:-|three_prime_utr|ENSG00000183304|control|control|control (ssRNA)
RNA: GGGAGUUCUACAGUCCGACGAUCCAACUUGAGCUACAGUAAACUACAUGACAGUGUUUUGAUAAUUGUUGUAUAAAUCGGUAUAGCUCCUCUGUCACUUGUCUGUUAAAUGCCAGACCUCGUUUCUAUGAUCUGUUGAAUGAACAACAGAGGAUUGAGCAUCA
B13: chr1:113128187:113128288:+|3pUTR|ENSG00000198799|unk|FALSE|unique (ssRNA)
RNA: GGGAGUUCUACAGUCCGACGAUCUCAUACUUAUUUUCAAUCCUAAGUGUUCUCCCAUGGGCAGCAGCACUUCUUGAGCUGUUUAGUACUGCCACACCUUUUUAUGUCUUUACUAUGUCAGCCUCUGAUCAUUUUCACUUUGAACAACAGAGGAUUGAGCAUCA
B14: chr6:36925625:36925726:+|3pUTR|ENSG00000198663|msi1|total|mutant (ssRNA)
RNA: GGGAGUUCUACAGUCCGACGAUCACUUCUCAAGUUAAUUUUGAUAAGCAGAAUCUACUACUGGCCAGAGCGACAGGAGUGGCCCGGGGUUGCCAGCCAGUCCCUUUCUGAUGAUCAAGGCCCUGCACAGCAGGAUGCCACAGGCAACAGAGGAUUGAGCAUCA
B15: chr15:99139316:99139576:-|CDS|ENSG00000103852|control|control|control (ssRNA)
RNA: GGGAGUUCUACAGUCCGACGAUCCUCUCAUUCAAGGGAGACCUUAGUUUCCUGCUCUCAGCGACACUUCCAUAGCCUCAUGAUAGCUGCUUGGUGUUCUACAGUGUCUCCAGAUCCAGACCCUCUUAUAUGGACCGCAGGACACAACAGAGGAUUGAGCAUCA
B16: chr12:442458:442559:+|3pUTR|ENSG00000120647|unk|total|mutant (ssRNA)
RNA: GGGAGUUCUACAGUCCGACGAUCCCUGAGCAGAGCCUGAAUUACGUUUUUGGGCAAUUUCAUGGUGUUUCACCAGAGGGCGCCCGAGACUCAAACGAAAUGUCCAUCUGGAAAGAUUCGGGAGACACUUUGCCGAGGGGAUGACAACAGAGGAUUGAGCAUCA
B17: chr5:72208420:72208520:+|3pUTR|ENSG00000131711|msi1_unk|FALSE|overlapping (ssRNA)
RNA: GGGAGUUCUACAGUCCGACGAUCCUCAUGAUCAUGACCUUUUUGGUAGUAUUCUUAAACAAAAUUCUACAGAGACUAAAUGUUAGCGAUGAUCCUCCAUUUUCAAUUUUAACCAAUUCUGUCCCCUUUCUCAAAACCCUGAGCCAACAGAGGAUUGAGCAUCA
B18: chrX:52696895:52697518:-|three_prime_utr|ENSG00000241476|control|control|control (ssRNA)
RNA: GGGAGUUCUACAGUCCGACGAUCGAACGUGGUGACCUUUCACGAACAUGGGCAUGGCUGCGGACCCCUCGUCAUCAGGUGCAUAGCAAGUGAAAGCAAGUGUUCACAACAGUGAAAAGUUGAGCGUCAUUUUUCUUAGUGUGCCAACAGAGGAUUGAGCAUCA
B19: chr2:119156242:119156801:-|three_prime_utr|ENSG00000144119|control|control|control (ssRNA)
RNA: GGGAGUUCUACAGUCCGACGAUCCAAGGGAGGAAGGGACGCCCGAGCCCUUGAGGCGGCGGCACAGACUUUGCAAACCUGAUUAGACUGGACAGGCAGGGCCGGGAGCCUGCCCUCCUCAGACAGCCUCCUCCCAGUGCCUAGCAACAGAGGAUUGAGCAUCA
B20: ENSG00000136451:be:win_2701|3pUTR|ENSG00000136451|bound_else_gene|NA|bound_elsewhere_windowed (ssRNA)
RNA: GGGAGUUCUACAGUCCGACGAUCUGUAAAUAUGGACAUCACUUUUUUUUUCUUUGAGAAAACACUUGUAUCAGCUUUGUGGUGUUUUCAGGGAGACAGCUGUCUGCAUUCCCUGUAGAAACCCAGCAAUGAUUAUGCACGUUGCAACAGAGGAUUGAGCAUCA
B21: chr19:2274630:2275679:-|three_prime_utr|ENSG00000188305|control|control|control (ssRNA)
RNA: GGGAGUUCUACAGUCCGACGAUCACACCUGGUCCAGGCCUGCCCAGGAGGCAGGGCUGGGGCUGAGGUCAGCGUCUCCAUGAUAGCCAAGACACCCUCUUCCUGCAGAGUCCAGGAGCGCAGCAGAGAGAGCAAUGCCCCACUCAACAGAGGAUUGAGCAUCA
B22: chr17:77200548:77200649:+|CDS|ENSG00000129657|msi1|total|mutant (ssRNA)
RNA: GGGAGUUCUACAGUCCGACGAUCUAUUGACAAAGCCAGAGAGAUCAUGUGUCAGUCUUUGACGUGGAGAAAGCAGCAUCAGGCCGACUACAUUCUUGAAACCUGGACCCCUCCUCAGGUCCUUCAGGAUUACUACGCGGGAGGCAACAGAGGAUUGAGCAUCA

The binders below were run against T1, UNK ZnF1-6 (called full-length) (assay: nsRBNS (natural sequence RNA bind-n-seq); RBNS binding buffer (assumed for nsRBNS): 25 mM Tris pH 7.5, 150 mM KCl, 3 mM MgCl2, 0.01% Triton X-100, 500 ug/ml BSA, 20 U/ml SUPERase-In, 4 C; UNK is unkempt and MSI1 is Musashi-1; names of the RNAs are library labels; protein concentration not given here; high values mean tight binding).

Row | Binder | binding signal [enrichment R]
1 | B1 | 0.395
2 | B2 | 1.37
3 | B3 | 0.203
4 | B4 | 1.32
5 | B5 | 0.79
6 | B6 | 0.437
7 | B7 | 0.436
8 | B8 | 0.655
9 | B9 | 1.29
10 | B10 | 0.342
11 | B11 | 0.416
12 | B12 | 0.374
13 | B13 | 0.646
14 | B14 | 0.837
15 | B15 | 0.826
16 | B16 | 0.768
17 | B17 | 1.01
18 | B18 | 0.593
19 | B19 | 0.798
20 | B20 | 0.369
21 | B21 | 0.662
22 | B22 | 0.642
